According to the RNAGym collection of RNA variant scans (doi:10.1093/nar/gkz1192):
Read counts are not given, so values of variants with three or more changes are uncertain.

B1: CPEB3 Ribozyme (parent)
chain: UAACAGGGGGCCACAGCAGAAGCGUUCACGUCGCAGCCCCUGUCAGAUUCUGGUGAAUCUGCGAAUUCUGCUGUAUAUCUC

Variants of: B1
Assay: self-cleavage, relative activity (ratio to wild type); higher = more cleavage; in vitro, sequencing
Outline: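 Relative activity was defined as the cleaved/total read fraction for a variant divided by the same fraction for the unmutated ribozyme. CPEB3 self-cleaving ribozyme libraries were made by rounds of error-prone PCR, barcoded, and transcribed in vitro with T7 RNA polymerase for 5 hours at 37°C, and cleavage ran through transcription plus a 15 min DNase I step before EDTA. Illumina sequencing of template-switched reverse transcripts gave the reads, and DNA sequencing mapped the barcodes. Averages come from three batches, using variants with at least 5 reads.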

Variant	self-cleavage
UAGCAGGGGGCCACUGCAGAAGCGUUCACGUCGCAGCCCCAGUCAGAUUCCGGUGAAUCUGCGAAUUCAGCUGUAUAUCUC [A3G A15U U41A U51C U69A]	0.31
UAGCAGGGGGCCACUGCAGAAGCGUUCACGUCGCAGCCCCCGUCAGAUUAUGGUGAAUCUGCUAAUUCUGCUGUAUAUCUC [A3G A15U U41C C50A G63U]	0.77
UAGCAGGGGGCCACUGCAGAAGCGUUCACGUCGCAGCCCCUGCCAGAUUCUGGUGAAUCUGCGAAUUCUGCUGUAUAUCUC [A3G A15U U43C]	0.27
UAGCAGGGGGCCACUGCAGAAGCGUUCACGUCGCAGCCCCUGUCAGAUACUGGUGAAUCUGCGAAUUCUGCUGUCUAUCUC [A3G A15U U49A A75C]	0.56
UAGCAGGGGGCCACUGCAGAAGCGUUCACGUCGCAGCCCCUGUCAGAUUCUGGUGAAUCAGCGAAUUCUGCUGUAUAUCUC [A3G A15U U60A]	0.15
UAGCAGGGGGCCACAGCCGAAGCGUUCACGUCGCGGCCCCUGUCAGAUUCUGGUGAAUCUGCGAAUCCUGCCGAAUAUCUC [A3G A18C A35G U67C U72C U74A]	0.12
UAGCAGGGGGCCACAGCGGAGGCGUUCACGCCGCAGCCCCUGUCAGAUUCAGGUGAAUCUGCGAAUUCUGCUGUAUACCUC [A3G A18G A21G U31C U51A U78C]	0.47
UAGCAGGGGGCCACAGCGGAUGCGUUCACGUCGCAGCCCCUGUCAGAUUCUGGUGAAUCUGCGAAUACUGCUGUAUAUCUC [A3G A18G A21U U67A]	0.37
UAGCAGGGGGCCACAGCGGAAGCGUUCGCGUCGCAGCCCCUGUCAGAUUCUGGUGAAUCUGCGAAUUCUGCUGUAUAUCUC [A3G A18G A28G]	0.5
UAGCAGGGGGCCACAGCGGAAGCGUUCGCGUCGCGGCCCCUGUCAGAUUCUUGUGAAUCUGCGAAUUCUGCUGUAUAUCUC [A3G A18G A28G A35G G52U]	0.67
UAGCAGGGGGCCACAGCGGAAGCGUUCGCGUCGCUGCCCCUGUCAGAUUCUGGUGAAUCUGCGAAUUCUGCUGUAUAUCUC [A3G A18G A28G A35U]	0.4
UAGCAGGGGGCCACAGCGGAAGCGUUCACGUCGCGGCCCCUGACAGAUUCUGGUGAAUCUGCGAAUUCUGCUGUAUAUCUC [A3G A18G A35G U43A]	0.84
UAGCAGGGGGCCACAGCGGAAGCGUUCACGUCGCGGCCCCUGUCAGAUCCUGGUGAAUCUGCGAAUUCUGCUGUAUAUCUC [A3G A18G A35G U49C]	0.55
UAGCAGGGGGCCACAGCGGAAGCGUUCACGUCGCGGCCCCUGUCAGAUUCUGGUGAACCUGCGAAUUCCGCUGUAUAUCUC [A3G A18G A35G U58C U69C]	1.22
UAGCAGGGGGCCACAGCGGAAGCGUUCACGUCGCUGCCCCUGUCGGUUUCUGGUGAAUCUGCGAAUUCUGCUGUAAAUCUC [A3G A18G A35U A45G A47U U76A]	0.07
UAGCAGGGGGCCACAGCGGAAGCGUUCACGUCGCUGCCCCUGUCAGAUCCUGGUGAAUCUGCGAAUUCGGCUGUAUAUCUC [A3G A18G A35U U49C U69G]	0.1
UAGCAGGGGGCCACAGCGGAAGCGUUCACGUCGCAGCCCCUGUCGGAUUCUGGUGAAUCUGCGAAUUCUGCUGUAUAUCUC [A3G A18G A45G]	0.33

Variant	self-cleavage
UAGCAGGGGGCCACAGCGGAAGCGUUCACGUCGCAGCCCCUGUCAGUUUCUGGUGAAUCUGCGAGUUCAGCUGUAAAUCUC [A3G A18G A47U A65G U69A U76A]	0.13
UAGCAGGGGGCCACAGCGGAAGCGUUCACGUCGCAGCCCCUGUCAGAUUCUGGUGGAUCUGCGAAUUCUGCUGUAUAUCUC [A3G A18G A56G]	0.52
UAGCAGGGGGCCACAGCGGAAGCGUUCACGUCGCAGCCCCUGUCAGAUUCUGGUGGAUCUGCGAAUUCUGCUGUAUACCAC [A3G A18G A56G U78C U80A]	0.65
UAGCAGGGGGCCACAGCGGAAGCGUUCACGUCGCAGCCCCUGUCAGAUUCUGGUGAAUCUGCGAGUUCUGCUGUAUAUCUC [A3G A18G A65G]	0.31
UAGCAGGGGGCCACAGCGGAAGCGUUCACGUCGCAGCCCCUGUCAGAUUCUGGUGAAUCUGCGAAUUCUGCUGUAUGUCUA [A3G A18G A77G C81A]	1.12
UAGCAGGGGGCCACAGCGGAAGCGUUCACGUCGCAGCCACUGUCAGAUUCUGGUGAAUCUGCGAAUUCUGCUGUACAUCUC [A3G A18G C39A U76C]	0.49
UAGCAGGGGGCCACAGCGGAAGCGUUCACGUCGCAGCCCGUGUCAGUUUCUGGUGAAUAUGCGAAUUCCGCUGUAUAUCUC [A3G A18G C40G A47U C59A U69C]	0.26
UAGCAGGGGGCCACAGCGCAAGCGUUCACGUCGCAGCCCCUGUCAGAUUCUGGUGAAUCUGCGAAUUCUGCUGUAUAUCUC [A3G A18G G19C]	0.48
UAGCAGGGGGCCACAGCGGAAACGCUCACGUCGCAGCCCCUGUCAGAUUCUGGUGAAUCUGCGAAUUCUGCUGAAUAUCUC [A3G A18G G22A U25C U74A]	0.64
UAGCAGGGGGCCACAGCGGAAUCGUUCACGUCGCAGCCCCUGACAGAUUCCGGUGAAUCUGCGCAUUCUGCUGUAAAUCUC [A3G A18G G22U U43A U51C A64C U76A]	0.2
UAGCAGGGGGCCACAGCGGAAGCGUUCACGUCACAGCCCCCGUCUGAUUCUCGUGAAUCUGCGAAUUCUGCUGUAUAUCUC [A3G A18G G33A U41C A45U G52C]	0.07
UAGCAGGGGGCCACAGCGGAAGCGUUCACGUCACAGCCCCUGUCAGACUCUGGUGAAUCUGCGAACUCUGCUGUAUAUCUC [A3G A18G G33A U48C U66C]	0.07
UAGCAGGGGGCCACAGCGGAAGCGUCCACGUCGCAGCCCCAGUCAGAUUCUGGUGAAUCUGCGAACUCUGCUGAAUAUCUC [A3G A18G U26C U41A U66C U74A]	0.08
UAGCAGGGGGCCACAGCGGAAGCGUCCACGUCGCAGCCCCUGCCUGAUUCUGGUGAAUCUGCGAAUUCUGCUGUAUAUCUC [A3G A18G U26C U43C A45U]	0
UAGCAGGGGGCCACAGCGGAAGCGUCCACGUCGCAGCCCCUGUCAGAUUCUGGUGAAUCUGCGAAUUCUGCUGCAUAUCUC [A3G A18G U26C U74C]	0.59
UAGCAGGGGGCCACAGCGGAAGCGUUCACGACGCAGCCCCUGUCAGAUUCUGGUGAAUCUGCGAGUACCGCUGUAUAUCUC [A3G A18G U31A A65G U67A U69C]	0.3
UAGCAGGGGGCCACAGCGGAAGCGUUCACGCCGCAGCCCCUGUCAGAUUCUGGUGAAUCUGCGAAUUCUGCUGUAUACCUC [A3G A18G U31C U78C]	0.37
